Results reported in the RNAGym collection of RNA variant scans (doi:10.1073/pnas.2313332121).
This sample is rich in variants without activity.

B1: TPR 5TU (parent)
chain: GGAUCUUCUCGAUCUAACAAAAAAGACAAAUCUGCCACAAAGCUUGAGAGCAUCUUCGGAUGCAGAGGCGGCAGCCUUCGGUGGCGCGAUAGCGCCAACGUUCUCAACUAUGACACGCAAAACGCGUGCUCCGUUGAAUGGAGUUUAUCAUG

Variants of: B1
Test: polymerase ribozyme fitness, log enrichment relative to wild type (log ratio); higher = more active; in vitro selection for triplet polymerase activity
How it was run: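 Libraries of mutants in each subunit of a heterodimeric triplet polymerase ribozyme were generated by PCR and transcribed. In triplicate, each went through one in vitro selection round: annealing with biotinylated primer, partner subunit and triplets; frozen incubation at −7 °C; gel excision of extended constructs; streptavidin-bead capture; RT-PCR. Fitness, taken from Illumina sequencing of input and output libraries, is the logarithm of a genotype's enrichment over wild-type enrichment, averaged across replicates with inverse-variance weights. The logarithm is base 2, and genotypes needed ≥10 input reads and ≥1 read per output to be kept.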

| Variant | polymerase ribozyme fitness (log ratio) |
| --- | --- |
| U55A C93U A115U G143U | ≤ -4.2 |
| U55A C95U C132G G141U | ≤ -4.2 |
| U55A C96A A119C A150U U151G | ≤ -4.2 |
| U55A C96G A115U A119G | -2.42 |
| U55A C103U | -0.726 |
| U55A C129A | -2.11 |
| U55A G58A A89C A120U U134C | 0.161 |
| U55A G58A C85A C131U | 0.931 |
| U55A G58C G92A C103A | ≤ -4.2 |
| U55A G58C U61G G62A A66G G81C A113C C132G | ≤ -4.2 |
| U55A G58U G83C G124C C132G | ≤ -4.2 |
| U55A G65U G74A A97U C99G | ≤ -4.2 |
| U55A G67C C96U U111A | ≤ -4.2 |
| U55A G68A C76A C96U C125G U144A | ≤ -4.2 |
| U55A G68C | ≤ -4.2 |
| U55A G68C A91G A107C | ≤ -4.2 |
| U55A G68U C85A | ≤ -4.2 |
| U55A G68U G94C C116G A137U U146A | ≤ -4.2 |
| U55A G68U U82C A137U | ≤ -4.2 |
| U55A G70C C79G | ≤ -4.2 |
| U55A G80C U144G | ≤ -4.2 |
| U55A G81C C118G G141A U146A | -2.94 |
| U55A G83A G86C A98G C149U | ≤ -4.2 |
| U55A G83U | -1.69 |

| Variant | polymerase ribozyme fitness (log ratio) |
| --- | --- |
| U55A G83U C99U A107C C123A C125G U127G A142G U145C | ≤ -4.2 |
| U55A G84U G152C | -3.48 |
| U55A G86A C149U A150U | -1.65 |
| U55A G92U U146C | -0.69 |
| U55A G94C U148G | ≤ -4.2 |
| U55A G94U C108A | ≤ -4.2 |
| U55A G124A | -0.272 |
| U55A G124U U139G | 0.0477 |
| U55A G141A | -0.587 |
| U55A U56A C87A | ≤ -4.2 |
| U55A U56A G65A C85U U90G G136C | ≤ -4.2 |
| U55A U56C G83C | ≤ -4.2 |
| U55A U61A A91U A97C A142G | ≤ -4.2 |
| U55A U61C A66C G74U U78G A115C A121U | ≤ -4.2 |
| U55A U77A | ≤ -4.2 |
| U55A U78C C79A C85A G112U U139A | ≤ -4.2 |
| U55A U78G G94U C114G | ≤ -4.2 |
| U55A U82C | -0.191 |
| U55A U82G C116A A121U A137C | -3.5 |
| U55A U104G C131G A150C | ≤ -4.2 |
| U55A U109C U111G C114A | ≤ -4.2 |
| U55A U139G | -0.865 |
| U55C A60C A89G A119U A150U | ≤ -4.2 |
| U55C A73U A97U U144G | -1.48 |

| Variant | polymerase ribozyme fitness (log ratio) |
| --- | --- |
| U55C C75G C76U G80A C87G C108U | ≤ -4.2 |
| U55C C85U A97U | -1.16 |
| U55C G65C C85G C99G U146G | ≤ -4.2 |
| U55C G71C G84C C85G C96A U101C U139A G141U C149A | ≤ -4.2 |
| U55G A60G | 0.467 |
| U55G A89G G124C U146C | -1.44 |
| U55G A91C | ≤ -4.2 |
| U55G A106C | -0.416 |
| U55G A107U A122U | -3.21 |
| U55G C57G A97G A106C | -3 |
| U55G C57G G74A G84A C123U G128U | ≤ -4.2 |
| U55G C57U C63G A66U G94C U104G | ≤ -4.2 |
| U55G C72U G83U C96U | -1.11 |
| U55G C79A C85G | ≤ -4.2 |
| U55G C79G C85U U130G | ≤ -4.2 |
| U55G C79G C96A A119C | ≤ -4.2 |
| U55G C79U A91C G124C C129A A137U | ≤ -4.2 |
| U55G C85G | -1.66 |
| U55G C85G C132U | -2.9 |
| U55G C87U U101G U104G C114G A142G U144G | ≤ -4.2 |
| U55G C93G C123A | ≤ -4.2 |
| U55G C99A C108G U134G | ≤ -4.2 |
| U55G C105U G141U U145C U146G | -3.09 |
| U55G G58A C93A U109G | -3.3 |

| Variant | polymerase ribozyme fitness (log ratio) |
| --- | --- |
| U55G G58C C76U G80A G88A C96G U109C A110G G141A U146G | ≤ -4.2 |
| U55G G62A C116G | -1.02 |
| U55G G67U A73U G84U G86U | ≤ -4.2 |
| U55G G70C A107U U111C A142G | ≤ -4.2 |
| U55G G71U | -1.86 |
| U55G G80A | -2.09 |
| U55G G81A C118U U135G | -3.84 |
| U55G G83C C116A A138U | ≤ -4.2 |
| U55G G84A A89U C103U | -1.64 |
| U55G G86A U134A | -3.62 |
| U55G G86A U139G | -1.96 |
| U55G G88C C95U A98G A110C A142C A150C | ≤ -4.2 |
| U55G G92U U139G U146G | -1.4 |
| U55G U56A G68A C96U | ≤ -4.2 |
| U55G U78G C87G | ≤ -4.2 |
| U55G U90A C103G G143C | ≤ -4.2 |
| U55G U134C G143U | -1.98 |
| U56A A60G G92U U102A C114U C123U | ≤ -4.2 |
| U56A A60U A66G A73G C95G U101C U109C A120G | ≤ -4.2 |
| U56A A64U | -4.19 |
| U56A A66G C95U C99U A120G | ≤ -4.2 |
| U56A A73G | -0.236 |
| U56A A73G C87G | ≤ -4.2 |
| U56A A73U C93G G141C | ≤ -4.2 |

| Variant | polymerase ribozyme fitness (log ratio) |
| --- | --- |
| U56A A89U | -0.431 |
| U56A A91G U148C | -3.72 |
| U56A A91U | ≤ -4.2 |
| U56A A97G | -0.89 |
| U56A A113G | -1.32 |
| U56A A115C | -0.798 |
| U56A A142U | -0.643 |
| U56A C57G G68A A97U U144A | ≤ -4.2 |
| U56A C57U | 0.273 |
| U56A C57U G71A U102G C131A | ≤ -4.2 |
| U56A C69U A106G | -1.79 |
| U56A C76G G81A G88C U139G | ≤ -4.2 |
| U56A C79U C93U A115C A147G | ≤ -4.2 |
| U56A C79U C118G C132A | -4.05 |
| U56A C79U U82G C85U A122G C129A G136U | ≤ -4.2 |
| U56A C85G | -2.44 |
| U56A C85U | -0.564 |
| U56A C93A | -2.63 |
| U56A C93G | -3.55 |
| U56A C93U | -2.13 |
| U56A C93U A98U C108U A122C G128A U144C | ≤ -4.2 |
| U56A C95U U104G A113G C116A | ≤ -4.2 |
| U56A C96U | -0.499 |
| U56A C96U C116U G143A | -3.36 |

| Variant | polymerase ribozyme fitness (log ratio) |
| --- | --- |
| U56A C96U G133A | ≤ -4.2 |
| U56A C103G | -0.914 |
| U56A C103U | -0.0268 |
| U56A C118U C123G U144C | -0.722 |
| U56A C149U | -0.627 |
| U56A G58A A89C C95G A122C G124C G141C | -1.54 |
| U56A G58C C85U | -0.365 |
| U56A G58C G92U C93A C118A | -3.82 |
| U56A G59A A97U C149U | -1.48 |
| U56A G62A C76U G81A C87U C95U | -1.49 |
| U56A G67C C85A C108G G140A | ≤ -4.2 |
| U56A G68A G80A C93U | ≤ -4.2 |
| U56A G68C U90C C96U U127C | ≤ -4.2 |
| U56A G70C | -3.24 |
| U56A G70C U78A U82A C131A | ≤ -4.2 |
| U56A G71U C125G | -3.78 |
| U56A G71U U78G C85U G143U | ≤ -4.2 |
| U56A G74C | -4.17 |
| U56A G80U G84U U102G G124U | ≤ -4.2 |
| U56A G81A C103G A121G A122U | -1.56 |
| U56A G83U C93G | ≤ -4.2 |
| U56A G84U A89C A142U | -3.24 |
| U56A G88C | -4.12 |
| U56A G88C C99U U145A | ≤ -4.2 |

| Variant | polymerase ribozyme fitness (log ratio) |
| --- | --- |
| U56A G88C C129U U134G A137U | ≤ -4.2 |
| U56A G88U | -3.06 |
| U56A G88U C114A | ≤ -4.2 |
| U56A G92A | -2.28 |
| U56A G92A C108U C118U | ≤ -4.2 |
| U56A G92C | -1.7 |
| U56A G117C | -0.369 |
| U56A G133A | ≤ -4.2 |
| U56A G136A | -0.463 |
| U56A U61A C96U U101A | -1.95 |
| U56A U78G G92U C114U C116A A137C G152U | ≤ -4.2 |
| U56A U82C A106G A115C U151A | ≤ -4.2 |
| U56A U109C | -3.5 |
| U56A U127A A138C A142G | -3.48 |
| U56A U134A G143C | -4.04 |
| U56A U144A | -0.302 |
| U56C A120U A122G U127C C129G U145A C149U | ≤ -4.2 |
| U56C C76A A91U A97G | ≤ -4.2 |
| U56C C87U A89G U101G | -2.81 |
| U56C C95A U102A | -1.87 |
| U56C C108G C116A | ≤ -4.2 |
| U56C C108U | -4.01 |
| U56C G58A G84A U145G | 0.113 |
